Test results published in the supplement of paper PMC10126150.
Sequences with one replicate were seen in a single cluster, so their values are uncertain.

System: ATP
Experiment: switch fluorescence ratio, 500 uM ATP over buffer (Cy3 cluster intensity, sum of 5 cycles each) (fold (ratio)); higher = stronger signal-on switching upon ATP binding; sequences stand for … in TCGTCGGCAGCGTCAGATGTGTATAAGAGACAGTTTTTTTTTTTTTTTTTTTTTTTTT…TC
Details: aptamer strand: ATP DNA aptamer (quencher-CACCTGGGGGAGTATTGCGGAGGAAGG + anchor), 100 nM annealed; ATP concentration: 500 uM; one replicate
In short: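 For every switch-domain sequence, the fluorescence ratio is the mean of per-cluster values, each being summed target-cycle Cy3 intensity over summed buffer-cycle Cy3 intensity. Clusters outside 100-1000 RFU were excluded. On a modified Illumina MiSeq flow-cell, the Cy3-labelled switching-strand clusters were annealed to 100 nM quencher-labelled ATP aptamer, imaged in selection buffer and then after 15 min with 500 uM ATP at 22 °C. Five such cycles were run, with NaOH stripping and re-annealing between them.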
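Also: ATP exposure 15 min at 22 °C before imaging.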

Sequence	switch fluorescence ratio
AATAGCGTCT	0.971
GCAAAACCTA	1.05
CTGGAGTACA	1.64
AAATTTGGCA	0.99
CAGATTGGAC	0.975
TCTAGAGCCC	0.993
ACGAGTACAG	1.13
ACGTTTCTCT	1.04
GCTAGTCTCG	1.02
TCCGTGGAGT	1.04
AATCTTACTT	0.973
CTTCATTCAT	0.991
GGCACCTATG	1.04
TATTTGTGGC	1
TCATTGAATT	0.936
CTGCTGGGCG	1.04
TCTTATCGAT	1.03
GCGGGTTGTC	1.01
CAGGTATCGA	0.998
GGCTGGACAA	0.995
AACAACCCGA	1.02
ACGGAATTAC	3.3
GGATAAGGGA	0.992
TATGGGACTG	1.01
AAAGATGCGA	1
GGTGTGAGCC	1.05

Sequence	switch fluorescence ratio
GACATTTCTG	1.09
GCCTGGGTCT	1.02
AGTTAAAGTA	1.03
GTGTCTCTTA	1.08
AAATGGAGTT	1.05
CGAGGCTCTC	0.982
AGGGTGCCCC	1.37
TCAAAGCATC	1.39
AGCCCGTGAA	1.02
TTTTAAATTA	0.991
GGGAACTGTG	1.02
ACGGGGGATA	1.04
CGAATCAGTT	1
TACATATTGG	1.06
GGGCGTCGCA	1.06
TGCATATCG	1.07
CGTCGTACTT	1.03
TTGCGTCCC	1.03
TTGGAGGGAC	0.962
GTCGCTCGTC	0.99
ATATGCTCGC	1.21
TACACTGGAA	1.06
TACCGGATCT	1.01
GAGACCAGGT	1.56
GGGACTTCCC	1.12
GAAGGCGATT	1.01

Sequence	switch fluorescence ratio
CGTGTCGGGC	0.987
TTCGACGATG	0.97
ACGACCGAAT	1.14
ATACCACTTT	1.06
AAGGGTCGGC	0.952
AGAGAGTTAA	1.02
AGGAGTTCCC	0.964
TTATCGGGTG	1.06
GACGAAGGGT	1
AGCAGACTT	1.09
AGAGGCGAGT	1.03
GGAAGATTCA	0.979
CATGGGTCGC	1.02
CCATTTGGT	1.04
GCACAGTTGT	0.98
AGGGCGGATG	1.01
GATGGTACTA	0.948
TCATGGCACT	1.03
GGTTGGATAA	1
TAATTGGTTC	0.96
ATATTATGTC	1.08
CAGGGACTA	1.01
ATGGGAGACT	1.02
TTAAACCAGC	1.01
TGGCAACCTG	0.963
CAATTTGGGT	1.02

Sequence	switch fluorescence ratio
CTTGTCCGGC	1.02
GTGTGAGGGG	1.05
ATCAACGAAT	0.965
CAGGCGTGTC	1
CTGTGACCTG	0.989
TACACGTGGT	1.01
GAGAGATATG	1.01
CTGCAAGTTA	1.14
TTCCGTGATG	1.18
GCCTACTCGA	1.09
CTCTTGCGGT	1.01
TCTAATACTG	1.4
GGGAACAAGC	1.02
ATAGTGAGC	1.02
TTTTGCGGC	1.02
CAGTTCCGAC	1.26
TGGGTATTTC	1.03
CTGGCCGGAC	1.06
TGCCGGATGG	0.983
GATAGTTG	1.04
TCAGCATATC	4.77
TTGTGAAGTT	0.964
GACTACTTGG	1.05
CTGTCGGACG	1.01
GCGGAGATTA	1.02
TAGCCTGGTG	1.57

Sequence	switch fluorescence ratio
ACCAGCTGCA	0.962
CGGAATTATG	0.982
ATTGGTGCCA	0.981
TTCAGGTGCA	1.55
CTTACGCGGG	1.02
CGACTGAGC	1.06
GAGGGGCTGC	1.03
CCGAGGATGT	1.04
TAAGTGAC	1.12
AGCTGGGCAA	1.12
AGACCTGACT	1.84
AAGGGTGTCC	0.974
AGTGTATAGT	0.981
TGCGGGACC	0.986
TAGCACGGGT	1.03
TGTGACTAGG	0.999
CCATGGACGG	1.04
GTGTGCAGAG	1.02
CTTTCAACG	1.03
TCATAGGTTC	2.38
GTCGGGGGAA	1.01
AAGTATAGAT	0.988
CGAGTAAAGC	0.948
TAGGCATCAT	1.03
AGGTTGACGG	0.99
TTGTGAGGTG	1.05

Sequence	switch fluorescence ratio
CGTGGCCAAT	0.992
ACCGGTTACT	1.08
AATTATGAAA	1
TCGCATTGAT	1.32
GAATATTATT	0.993
TCGAACTAAT	1.02
GCTCTGCTAG	1.43
TTTGACGGAC	1.17
CTGATGCGAA	1.15
CCAGGACCCG	0.989
TCATACGGGA	1.25
CGTCTTATAT	0.994
TTCAGTGCTC	0.992
GCATGCGTCG	1.01
GGAAAGATAC	1.14
GCGCGGGCAG	0.97
CAGATTGTAG	0.98
CGTCCTTACA	1.06
CCTTGTCTGT	1.01
ATTTATTACG	0.975
ATCGGACCCG	1.01
GACGGCTAGG	0.975
CGCGTAGATT	1.09
GCCTTACGAT	1.39
TGACCCTAAT	1.02
AATGGGAGCG	0.959

Sequence	switch fluorescence ratio
TGGCCAAACC	1.05
TCTTTTTCGT	1.05
GCTCGTCTTG	0.956
GCAGCATACA	2.53
ATCAGTTTG	0.968
TCTCCAGGGT	1.53
AAACTTAAAC	1.01
TGTGTTATG	0.972
TAAAGATCAC	1.01
ATTTCGATAA	0.977
GTGTGTTGTT	0.98
GCGTATAGTA	1.02
TGCTCAGCAA	2.24
CATCACCCTG	1.02
AATAGGCTCT	1.01
GAGGATAGTT	0.993
AACTCTGTT	0.996
CAGGGGTCTT	1.37
ACTCCTTGAA	1.08
TTCTGCTTCT	1.03
GTGGTGTTTG	0.975
CTTCTCCATG	1.02
GGCCTCAAAG	0.998
AGTAAGATCG	0.93
CGCGTTGCTC	1.32
TTTTGTGCG	0.922

Sequence	switch fluorescence ratio
CCCCAAGTTT	1.03
TCCGTCGTTC	1.2
AAATTGAAAA	0.949
ACGCCCCATC	1.13
GCCCGAAGG	1.01
ATGTTCAATG	1.01
TAGCCGGTGC	1.07
CAATATGGTC	1.05
TTAGCAGTTA	1.26
GAAAAAATAA	0.99
GGTCTGTTAA	0.991
TATGTAAC	1.02
AGGTCGATTG	0.976
ATTAGCCGGT	0.969
AGGTTACGGT	0.981
GAACTTAGTA	1.03
TTATGTCCGA	1.01
CATTACAGTC	1.06
AAACGGAGGA	1.04
